PubChem BioAssay AID651582 (Sanford-Burnham Center for Chemical Genomics, 2012)
The other results are listed elsewhere or left out. These are further read-outs of the screen, such as a control signal, another cell line or another target. No call is given for them. The list favours compounds with an active or inconclusive main result.

assay: TAG lipid buildup reduction in H9c2 cells – cell-based, uHTS, fluorescence, primary screen (AID 651582); conditions: Nile Red lipid (TAG) fluorescence, measured here:, at 12.5 µM, cells loaded with 200 µM oleic acid

SMILES | DAPI nuclei signal change (viability), lower = more cytotoxic
O=[N+]([O-])c1ccccc1/C=C/C=N/Nc1ccc(S(=O)(=O)Nc2ccc(Cl)cc2)cc1[N+](=O)[O-] | -4.49%
COc1ccc(NS(=O)(=O)c2cc(C)ccc2NC(=O)c2cc(C)oc2C)cc1 | -35%
CCOCC(=O)NC1CCc2cc(OC)c(OC)c(OC)c2-c2ccc(SC)c(=O)cc21 (configuration not stated) | -43%
NC(Cc1ccc(Cl)cc1)c1csc(NC(=O)NCCc2ccccc2)n1 (configuration not stated) | -27.9%
C(=N\Nc1nc2ccccc2[nH]1)/c1cccc2nccnc12 | -17.1%
CCCCC(=NCCc1c(C)[nH]c2ccc(OC)cc12)C1=C(O)CC(c2ccccc2)CC1=O (configuration not stated) | -31.4%
Oc1ccc(N=Nc2ccc3c(c2)OCCO3)c2ncccc12 | -16.6%
COC(=O)C1=C(c2ccc(OC)cc2)OC(=O)C1(C)C | -40.2%
CCOc1ccc(CCNC(=O)CCc2nc(-c3ccc(C)cc3)no2)cc1OCC | -6.95%
COc1ccc(-c2cnnc(N/N=C/c3ccc(-c4ccc([N+](=O)[O-])cc4)o3)n2)cc1 | -24.8%
COc1cc(/C=C/C(=O)N2CCC=CC2=O)cc(OC)c1OC | -35.4%
c1ccc(-c2nc(N3CCOCC3)cc(N3CCOCC3)n2)cc1 | -3.13%
N#CC1=C(N)Oc2cc(Nc3ccccc3)ccc2C1c1ccncc1 (configuration not stated) | -39.7%
C=CCC[C@H](Cc1ccc(F)cc1)C(=O)OC[C@H](C)NC(=O)[C@@H](CC=C)CC(=O)N[C@H](CO)Cc1ccccc1 | -12.4%
C[C@]12c3[nH]c4ccccc4c3CCN1C(=O)C(CC(=O)NCC13CC4CC(CC(C4)C1)C3)C[C@@H]2C(=O)N1CCCCC1 (some centres not stated) | -40.2%
Cc1ccc(C(=O)N/C(=C\c2ccc(-c3ccccc3[N+](=O)[O-])o2)C(=O)NCCN(C)C)cc1 | -16.2%
C=CC[C@@H](CC(=O)N(CCO)Cc1ccccc1)C(=O)N[C@H](COC(=O)[C@@H](CC=C)Cc1ccc(F)cc1)Cc1ccccc1 | -1.84%
Clc1ccc(-c2csc(NNC3=NCCCCC3)n2)cc1 | -48.4%
COc1ccc(Cc2n[nH]c(=S)o2)cc1 | -28.1%

SMILES | DAPI nuclei signal change (viability), lower = more cytotoxic
O=C(O)CC1(CC(=O)Nc2cc(C(F)(F)F)cc(C(F)(F)F)c2)CCCCC1 | -37.8%
Nc1ncnc2c1ncn2C1C=C(CO)C(O)C1O (configuration not stated) | -14.2%
Oc1ccccc1/C=N/Nc1nc2ccccc2o1 | -29.8%
CC(=O)Nc1ccc(NC2=Nc3ccccc3N3C2=Nc2c(c(C)nn2-c2ccccc2)C3c2ccccc2)cc1 (configuration not stated) | -2.9%
CC(C)=CCNc1ncnc2c1c(C#N)cn2C1OC(CO)C(O)C1O (configuration not stated) | -29.5%
COc1ccc(/C=C/C(=O)c2cc(F)ccc2OC(=O)c2ccccc2)cc1OC | -35.4%
CCCCNC(=O)Nc1ccc(C2SCCS2)cc1 | -48.7%
COCCNc1nc(-c2ccc(OC)cc2C)c2sc(-c3ccccc3)cc2n1 | -44.4%
CN(C)CCNc1nc2sc3c(c2c(=O)n1CCc1ccccc1)CCCCC3 | -31.5%
CC1(c2cc([N+](=O)[O-])cc([N+](=O)[O-])c2)CC(C)(C)N(C(=O)c2ccccc2)c2ccccc21 (configuration not stated) | -9.83%
O=C1c2cccc(Sc3ccccc3)c2C(=O)c2c(Sc3ccccc3)cccc21 | -2.65%
COc1ccc(C(=O)c2no[n+]([O-])c2C(=O)c2ccc(OC)cc2)cc1 | -27.2%
CCCCCc1cc(=O)oc2c(C(CCN(CC)CC)c3ccc(N(C)C)cc3)c(OC)cc(OC)c12 (configuration not stated) | -26.1%
COc1cc(C(CCN2CCCC(C)C2)c2c(OC)cc(OC)c3c(-c4ccccc4)cc(=O)oc23)cc(OC)c1OC (configuration not stated) | 5.17%
CCC1=Nc2cc(C(=O)NCCCOC)ccc2Sc2ccccc21 | -8.1%
CNC[C@@H](CC1CCCCC1)NC[C@H](CC(C)C)NCCc1cccc(C(F)(F)F)c1 | -45.3%
COc1ccc(C(=O)Nc2ccc(Cl)cc2C(=O)NCc2ccco2)cc1OC | -10.4%
CCOc1ccc2nc(-c3ccccc3)[nH]c2c1 | -28.4%
Cc1ccnc(N2CCC(C(=O)Nc3ccc(Oc4ccccc4)cc3)CC2)n1 | -9.08%

SMILES | DAPI nuclei signal change (viability), lower = more cytotoxic
CCCCS(=O)(=O)/C=C\C=C/S(=O)(=O)CCCC | -44.7%
C[C@H](O)C#Cc1ccc2c(c1)O[C@@H](CN(C)Cc1ccc(-c3ccccc3)cc1)[C@H](C)CN([C@@H](C)CO)S2(=O)=O | -8.66%
COC(=O)[C@@]1(Cc2ccc(OC)cc2)[C@@H]2C(=CC(=O)[C@H]2CC(=O)C(=O)N2CCCC2)CN1C(=O)c1ccccc1 | -38.9%
O=C(Nc1ccc(-c2nc3ncccc3o2)cc1)c1ccc(Br)o1 | -4.74%
CN(C)CCCN(C(=O)CCc1ccccc1)c1nc2ccc(Br)cc2s1 | -28.2%
O=[N+]([O-])c1cc(S(=O)(=O)Nc2cccc(Cl)c2)ccc1N/N=C/c1ccc(N2CCOCC2)cc1 | 7.56%
COc1ccccc1NC(=O)Nc1nc(C(N)C2CCCCC2)cs1 (configuration not stated) | -12%
Cc1ccccc1OCc1n(CC(=O)OC2CC(C)CCC2C(C)C)c2ccccc2[n+]1C (configuration not stated) | -45.3%
CC(C)c1ccc(NC(=O)Nc2nc(C(N)COCc3ccccc3)cs2)cc1 (configuration not stated) | -45.1%
COc1cc(/C=N/Nc2nc(C)nc3c2cnn3-c2ccccc2)ccc1O | 19.6%
COc1cc(-c2cc(NC=O)c3ncc(-c4cccc(C(=O)N(C)C)c4)n3c2)cc(OC)c1OC | -26.1%
C[C@@H]1CN([C@@H](C)CO)C(=O)c2cccc(NC(=O)C3CCCCC3)c2O[C@@H]1CN(C)Cc1ccc(Cl)c(Cl)c1 | -9.88%
Cc1cc(NC(=O)CSc2nc(-c3ccco3)cc(C(F)(F)F)n2)no1 | -25%
CCOc1cc(/C=N\NC(=O)c2ccc(NC(=O)C(C)(C)C)cc2)ccc1OC(=O)c1cccc(C)c1 | -15.6%
COc1ccc(S(=O)(=O)N(C)C[C@H]2Oc3c(NC(=O)Nc4ccc(C(F)(F)F)cc4)cccc3C(=O)N([C@H](C)CO)C[C@@H]2C)cc1 | -11.6%
CC(C)c1ccc(Nc2ncc3c(n2)CCN(C(=O)Nc2ccc(F)c(Cl)c2)C3)cc1 | -4.43%
O=C(/C=C/c1ccccc1)Oc1cccc2cccnc12 | -20.2%
Cc1cc(N/N=C/c2cccc([N+](=O)[O-])c2)nc(-n2nc(C)cc2C)n1 | -30.3%
C#CCOCCOCCOCCNc1nc(N2CCN(C(=O)CCCCCCCCCCNC(=O)[C@H](CCCCN)n3cc(C[C@@H](C)CC)nn3)CC2)nc(N2CCN(C(=O)CCCCCCCCCCNC(=O)[C@H](CCCCN)n3cc(C[C@@H](C)CC)nn3)CC2)n1 | -37.5%
